Experimental data taken from PubChem BioAssay AID504845 (National Center for Advancing Translational Sciences (NCATS), 2011).
The whole screen tested about 390,000 compounds, of which about 150 (0.038%) were called active. Inconclusive means that the source gave no clear call. Such entries were picked first, then a sample of the others. The call rests on the fitted dose curve; in most records, active means well fitted inhibition curve with a large enough effect; inconclusive means small, poorly fitted or top-dose-only effect; inactive means no such curve, though single readings can be large or run the other way. Potencies of inconclusive entries are doubtful fits and often do not repeat. Where a structure was tested more than once in an assay, its records may differ in their call.

target: Regulator of G-protein signaling 4 (Homo sapiens) (UniProt P49798); experiment: Inhibitors of Regulator of G Protein Signaling (RGS) 4: qHTS; conditions: Transcreener GDP fluorescence polarization, RGS4-accelerated GTP hydrolysis; series mostly up to 114 µM; activity change, negative = inhibition: at the top concentration; further: nearly all actives have a fitted effect of over 75% in size
In short: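 MLSMR compounds (23 nl, pin-transferred) preincubated 10 min at room temperature with a 500nM (2x) first reagent, then RGS4 at 900nM (2x) plus Transcreener GDP mix added; fluorescence polarization (620/688 nm) read before and after 90 min at 30 °C.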
On the % scale 0 is the no-effect control and ±100 the full control effect; potency means the concentration at half of the fitted maximal effect; tags describe the fitted curve by direction and shape.

Chain of UniProt P49798 (P49798 whole entry, looked up): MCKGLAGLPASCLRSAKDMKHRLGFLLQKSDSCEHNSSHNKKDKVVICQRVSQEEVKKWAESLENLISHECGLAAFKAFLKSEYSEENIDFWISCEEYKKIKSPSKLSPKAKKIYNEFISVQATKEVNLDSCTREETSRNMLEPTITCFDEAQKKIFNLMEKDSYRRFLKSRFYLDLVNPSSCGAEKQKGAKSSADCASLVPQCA

SMILES	Potency	activity change, negative = inhibition
N#CC1=C2SCN(Cc3ccccc3)CN2C(=O)CC1c1ccc2c(c1)OCO2 (centres undefined)	inconclusive: 79.4 µM [inhibitor, partial curve, poor fit]	–
NC(=O)c1c(N)sc2c1CCCC2	inconclusive: 50.1 µM [inhibitor, partial curve, poor fit]	–
CCN(CC)CCNC(=O)c1ccc(NC(=O)c2cn(-c3ccc(F)cc3)nc2-c2cccc(OC)c2)cc1	inconclusive: 50.1 µM [inhibitor, partial curve, poor fit]	–
Cc1cc(C)c(C(=O)COC(=O)CCn2c(C)csc2=O)cc1C	inconclusive: 79.4 µM [inhibitor, partial curve, poor fit]	–
CC1SCC(=NOCc2ccccc2)CS1 (centres undefined)	–	inactive: -0.629%
CCOC(=O)CNC(=O)CSc1nc(-c2ccccc2)ns1	inconclusive: 44.7 µM [inhibitor, partial curve, poor fit]	–
COc1ccc(NC(=O)CSc2ncc3c(n2)-c2ccccc2N(Cc2ccc(C)cc2)S3(=O)=O)cc1Cl	–	inactive: 3.24%
O=C(CN1CCCC(O)C1)N1c2ccccc2Sc2ccc(C(F)(F)F)cc21 (centres undefined)	–	inactive: 31.6%
O=C(O)/C=C\C(=O)Nc1ccc(N2CCN(c3cccc(Cl)c3)CC2)cc1	inconclusive: 17.8 µM [inhibitor, full curve, poor fit]	–
CN(C)S(=O)(=O)c1ccc2nnn(O)c2c1	inconclusive: 35.5 µM [inhibitor, full curve, poor fit]	–
CCOC(=O)C[C@H]1c2cc(C(F)(F)F)ccc2S(=O)(=O)N1Cc1ccccc1	–	inactive: -6.72%
CN1C(=O)N(C)C2(c3ccccc3)N(C(C)(C)C)C(=O)NC12c1ccccc1 (centres undefined)	inconclusive: 70.8 µM [inhibitor, partial curve, poor fit]	–
CCOc1ccc(-n2c(C)cc(/C=C3/C(=N)N4C(=NC3=O)SN=C4S(C)(=O)=O)c2C)cc1	inconclusive: 79.4 µM [inhibitor, single point]	–
CN1CCN(CCC(=O)N2c3ccccc3Sc3ccc(C(F)(F)F)cc32)CC1	–	inactive: -4.37%
COc1ccc(C)cc1-n1c(-c2ccc(Cl)cc2)cc2c1CC(C)(C)CC2=O	–	inactive: 0.805%
COC(=O)c1ccc(C(=O)OC)c(NC(=S)N2CC(C)CC(C)C2)c1 (centres undefined)	–	inactive: -27.1%
O=S(=O)(c1ccc(Cl)cc1)c1nnn2c1nc(NC1CCCC1)c1sccc12	inconclusive: 44.7 µM [inhibitor, partial curve, poor fit]	–
CCC1Sc2ccccc2N(CC(=O)NCc2ccc(C)cc2)C1=O (centres undefined)	–	inactive: 7.48%
O=c1cc(-c2ccc(C3CCCCC3)cc2)[nH][nH]1	inconclusive: 44.7 µM [inhibitor, partial curve, poor fit]	–
CN(C)S(=O)(=O)c1cccc(C(=O)OCC(=O)Nc2ccccc2OC(F)F)c1	inconclusive: 70.8 µM [inhibitor, partial curve, poor fit]	–
COc1ccc(CCNC(=O)C(=O)NCc2cccs2)cc1OC	–	inactive: 20.6%
CCOc1ccc(NC(=O)C2CC(=O)N3CCCN=C3S2)cc1 (centres undefined)	inconclusive: 100 µM [inhibitor, partial curve, poor fit]	–
FC(F)(F)c1cccc(N2CCN(c3ncnc4c3nc3n4CCCC3)CC2)c1	–	inactive: -3.74%

SMILES	Potency	activity change, negative = inhibition
CC1(C)CC(=O)C2=C(C1)NC(=S)C(C#N)C21CCCCC1 (centres undefined)	inconclusive: 44.7 µM [inhibitor, partial curve, poor fit]	–
COc1ccc2ccccc2c1C1CC(=O)N2CN(Cc3ccco3)CSC2=C1C#N (centres undefined)	inconclusive: 22.4 µM [inhibitor, full curve, poor fit]	–
COc1ccc(NC(=O)Cn2c(=O)n(-c3ccccc3)c(=O)c3sccc32)c(OC)c1	inconclusive: 50.1 µM [inhibitor, partial curve, poor fit]	–
Cc1cc(OC(=O)c2ccc(Cl)cc2)cc(=O)n1C	inconclusive: 89.1 µM [inhibitor, single point]	–
COC(=O)c1c(-c2ccc(OC)cc2)sc2cc3c(cc12)OCO3	–	inactive: 8.87%
COc1ccc2nc(SCC(=O)Nc3ccccc3C#N)[nH]c2c1	–	inactive: 34.3%
COCCNC(=O)c1cc(-c2ccc(-c3ccccc3)cc2)nc2ccccc12	–	inactive: -2.06%
COC(=O)c1ccc(CSc2nnc(CNC(=O)COc3ccc(Cl)cc3)o2)o1	inconclusive: 100 µM [inhibitor, single point]	–
COc1ccc(NC(=O)CC2SC(=N)N(c3ccccc3)C2=O)c(OC)c1 (centres undefined)	inconclusive: 79.4 µM [inhibitor, partial curve, poor fit]	–
COc1cc(CNC(=O)c2ccc3nc(Cc4ccccc4)oc3c2)cc(OC)c1OC	–	inactive: -19%
COc1ccc(OC)c(C2CC(=O)c3c([nH]c(C(=O)OCc4ccc(C)cc4)c3C)C2)c1 (centres undefined)	–	inactive: -20.2%
Cn1c(=O)c(C(=O)NCCCc2ccccc2)c(O)c2ccccc21	–	inactive: 21.2%
O=C(Nc1nc2c(F)cccc2s1)c1ccc([N+](=O)[O-])o1	–	inactive: -5.69%
CNC[C@H](CC1CCCCC1)NC[C@H](CO)NCCc1cccc(C(F)(F)F)c1	–	inactive: 30.3%
Brc1cc2c(cc1Br)OCCOCCOCCOCCO2	inconclusive: 28.2 µM [inhibitor, full curve, poor fit]	–
COc1ccc(C(=O)n2nnc3ccccc32)cc1OC	–	inactive: 0.108%
CCOC(=O)/C=C1\SCC(=O)N1CC(=O)NC(c1ccccc1)c1ccccc1	–	inactive: 15.4%
CCN(CC)S(=O)(=O)c1ccc(N2CCOCC2)c(NC(=O)c2ccccc2)c1	–	inactive: -25.5%
Nc1cc(-c2ccncc2)c[nH]c1=O	inconclusive: 44.7 µM [inhibitor, partial curve, poor fit]	–
Cc1cc(-c2nnc(-c3ccccc3)c(-c3ccccc3)n2)c(C)o1	inconclusive: 89.1 µM [inhibitor, partial curve, poor fit]	–
CCC/C=C1\CCCOC(C(=O)NCc2ccc(C)o2)(C(F)(F)F)C1 (centres undefined)	inconclusive: 56.2 µM [inhibitor, partial curve, poor fit]	–
CCN1/C(=C/C(=S)Nc2ccccc2)Sc2ccccc21	inconclusive: 28.2 µM [inhibitor, full curve, poor fit]	–
COc1ccc(-n2c(-c3ccccc3)c[n+]3c2CCC3)cc1	–	inactive: -21.9%

SMILES	Potency	activity change, negative = inhibition
CS(=O)(=O)Nc1ccc([N+](=O)[O-])cc1OC1CCCCC1	active: 8.44 µM	–
Cc1cc(NC(=O)CCCS(=O)(=O)c2nc(-c3cccs3)cc(C(F)(F)F)n2)no1	inconclusive: 35.5 µM [inhibitor, partial curve, poor fit]	–
Cc1ccc(NC(=O)CN2CCc3ccccc3C2)cc1F	–	inactive: 15.9%
Cn1c(N)c(C(=O)COC(=O)CSc2cccc3cccc(Cl)c23)c(=O)n(C)c1=O	inconclusive: 44.7 µM [inhibitor, partial curve, poor fit]	–
CCN(CC)CCOC(=O)c1ccc(N/C=C(/C#N)c2nc(-c3ccc(OC)cc3)cs2)cc1	inconclusive: 17.8 µM [inhibitor, full curve, poor fit]	–
CCC[n+]1c2ccccc2cc2ccccc21	inconclusive: 50.1 µM [inhibitor, partial curve, poor fit]	–
C/C=C\C=C\C(=O)N1CC2(CC(c3cccc(NC(=O)/C(C)=C\C)c3)=NO2)C[C@H]1C(N)=O (some centres undefined)	inconclusive: 17.8 µM [inhibitor, full curve, poor fit]	–
CCOC(=O)C1(Cc2cccc(OC)c2)CCCN(C(=O)c2ccc(OC)o2)C1 (centres undefined)	–	inactive: -7%
Cc1ccc(CN2CCC(CNC(=O)Nc3ccc(C)c(C)c3)C2)cc1 (centres undefined)	–	inactive: -6.77%
O=C(CNC1CCCCCC1)c1cccs1	inconclusive: 39.8 µM [inhibitor, partial curve, poor fit]	–
Cc1cc(NC(=O)c2ocnc2C)no1	inconclusive: 100 µM [inhibitor, single point]	–
O=C(Nc1ccc2ncccc2c1)Nc1ccc2ncccc2c1	inconclusive: 44.7 µM [inhibitor, partial curve, poor fit]	–
CC(C)c1cc(C(C)C)c(S(=O)(=O)NNC(=O)c2ccncc2)c(C(C)C)c1	inconclusive: 89.1 µM [inhibitor, single point]	–
Cc1ccc(CONC(=O)c2cccc(C)c2)cc1	–	inactive: 2.07%
CCC(C)Oc1ccc(/C=C/c2[nH]c(=O)[nH]c(=O)c2[N+](=O)[O-])cc1OC (centres undefined)	inconclusive: 70.8 µM [inhibitor, single point]	–
O=C(/C=C/c1ccco1)Nc1cccc2cccnc12	inconclusive: 20 µM [inhibitor, full curve, poor fit]	–
C/C=C/Cn1c(SCc2ccccc2)nc2c1c(=O)[nH]c(=O)n2C	inconclusive: 50.1 µM [inhibitor, partial curve, poor fit]	–
CCN(CC)S(=O)(=O)c1ccc2oc(C(=O)NCc3ccc(F)cc3)c(C)c2c1	–	inactive: -22.1%
CCC(=O)N1CCN(c2ccccc2NC(=O)c2ccc(OC)c(Cl)c2)CC1	inconclusive: 79.4 µM [inhibitor, partial curve, poor fit]	–
CC1(C)CC(=O)C(C(C2=C(O)CC(C)(C)CC2=O)c2ccc(Br)s2)C(=O)C1 (centres undefined)	inconclusive: 31.6 µM [inhibitor, full curve, poor fit]	–
COc1ccc(-n2c(=O)c(CCC(=O)N3CCN(c4ccccc4O)CC3)nc3ccccc32)cc1	inconclusive: 89.1 µM [inhibitor, single point]	–
CN(C(=O)CCc1ccccc1F)C1CCCN(Cc2ccccc2F)C1 (centres undefined)	inconclusive: 31.6 µM [inhibitor, full curve, poor fit]	–
O=C1C(Cl)=C(O)C2(Cl)C(Cl)=C(Cl)C12Cl (centres undefined)	–	inactive: 10.8%
